According to patent publication US10941114B2, “Small molecule lipid II inhibitors” (University Of Maryland, Baltimore, priority 2015, dated 2021):

System: Enterococcus faecalis EF1509
Experiment: Murine model of sepsis
Settings: ampicillin 300 mg/kg IP; for bacterial counts in spleen: after 24 hours, 6jc48-1 100 mg/kg IP
Description: General methods for the murine model of sepsis were as follows. […] Infected animals subsequently were treated by intravenous injection 30 minutes, 120 minutes and 300 minutes post-infection with 5 mg/kg of the compound in 100 μL of one of (1) Tris-buffered saline solution, 50% PEG400, 10% DMSO (v/v), (2) linezolid (50 mg/kg, sterile Tris-buffered saline solution, 50% PEG400, 10% DMSO (v/v) as a positive control) or (3) vehicle (Tris-buffered saline solution, 50% PEG400, 10% DMSO (v/v) as a negative control). […] Mice were anesthetized by intraperitoneal injection of ketamine (80-100 mg/kg) and xylazine (10-15 mg/kg). Blood samples were collected by retro-orbital puncture using lithium-heparin polystyrene tubes to prevent coagulation. Spleens were harvested aseptically, weighed and homogenized in 500 μL sterile saline solution using an IKA™ basic disperser (IKA™, Wilmington N.C.). Whole blood samples and spleen homogenates were serially diluted and plated onto lysogeny broth (LB) agar plates. Bacterial counts were determined following a 24-hour incubation at 37° C. and expressed as CFU per milliliter for blood and CFU per gram for spleen.
A specific test was performed as follows. Based on the data obtained in the pharmacokinetic analysis, mice (n=5) were inoculated peritoneally with E. faecalis EF1509 and treated after 30 minutes and three times every 90 minutes following with compound at 5 mg/kg intravenously. Animals were monitored for survival. Blood and spleen samples were collected and tested for bacteria.
In a separate test, mice (n=5) were inoculated intraperitoneally with E. faecalis EF1509 (approximately 5×10^8 CFU/animal) and treated after 30 minutes with compound 6jc48-1 (100 mg/kg IP), ampicillin (300 mg/kg IP) or a vehicle control. Animals were monitored for survival. After 24 hours, spleen samples were collected and analyzed for the presence of bacteria. Bacterial counts were determined by plating serial dilutions on BHI agar plates and compared to control treatments as measures of efficacy. […]

Compound	animals surviving for the duration of the experiment (E. faecalis EF1509 approx. 5×10^8 CFU/animal IP, treated after 30 minutes: 6jc48-1 100 mg/kg IP, n=5)	bacterial counts in spleen
CC1(C)S[C@@H]2[C@H](NC(=O)[C@H](N)c3ccccc3)C(=O)N2[C@H]1C(=O)O [ampicillin, reference compound]	all animals	significant bacterial clearance
CN(C)c1ccc(/C=C/c2cc(-c3ccc(Br)cc3)cc(-c3ccc(Br)cc3)[o+]2)cc1 [Compound 6jc48-1, (E)-2,4-bis(4-bromophenyl)-6-(4-(dimethylamino)styryl)pyrylium boron tetrafluoride salt]	–	significant bacterial clearance

Where a name gives a salt, the structure may show the parent alone.
